Data reported in publication PMC4336329 (PLoS ONE, 2015).
Screen size: about 310,000 compounds; about 2,200 (0.71%) showed an effect of 50% or more. Effects have a minus sign here. The list shows a part of the results.

Each compound was assayed against human ether-à-go-go-related gene (hERG) potassium channel (human, UniProt Q12809) (assay: primary screen, population patch clamp on CHO cells stably expressing hERG).
Chain of human ether-à-go-go-related gene (hERG) potassium channel (Q12809 whole entry, looked up): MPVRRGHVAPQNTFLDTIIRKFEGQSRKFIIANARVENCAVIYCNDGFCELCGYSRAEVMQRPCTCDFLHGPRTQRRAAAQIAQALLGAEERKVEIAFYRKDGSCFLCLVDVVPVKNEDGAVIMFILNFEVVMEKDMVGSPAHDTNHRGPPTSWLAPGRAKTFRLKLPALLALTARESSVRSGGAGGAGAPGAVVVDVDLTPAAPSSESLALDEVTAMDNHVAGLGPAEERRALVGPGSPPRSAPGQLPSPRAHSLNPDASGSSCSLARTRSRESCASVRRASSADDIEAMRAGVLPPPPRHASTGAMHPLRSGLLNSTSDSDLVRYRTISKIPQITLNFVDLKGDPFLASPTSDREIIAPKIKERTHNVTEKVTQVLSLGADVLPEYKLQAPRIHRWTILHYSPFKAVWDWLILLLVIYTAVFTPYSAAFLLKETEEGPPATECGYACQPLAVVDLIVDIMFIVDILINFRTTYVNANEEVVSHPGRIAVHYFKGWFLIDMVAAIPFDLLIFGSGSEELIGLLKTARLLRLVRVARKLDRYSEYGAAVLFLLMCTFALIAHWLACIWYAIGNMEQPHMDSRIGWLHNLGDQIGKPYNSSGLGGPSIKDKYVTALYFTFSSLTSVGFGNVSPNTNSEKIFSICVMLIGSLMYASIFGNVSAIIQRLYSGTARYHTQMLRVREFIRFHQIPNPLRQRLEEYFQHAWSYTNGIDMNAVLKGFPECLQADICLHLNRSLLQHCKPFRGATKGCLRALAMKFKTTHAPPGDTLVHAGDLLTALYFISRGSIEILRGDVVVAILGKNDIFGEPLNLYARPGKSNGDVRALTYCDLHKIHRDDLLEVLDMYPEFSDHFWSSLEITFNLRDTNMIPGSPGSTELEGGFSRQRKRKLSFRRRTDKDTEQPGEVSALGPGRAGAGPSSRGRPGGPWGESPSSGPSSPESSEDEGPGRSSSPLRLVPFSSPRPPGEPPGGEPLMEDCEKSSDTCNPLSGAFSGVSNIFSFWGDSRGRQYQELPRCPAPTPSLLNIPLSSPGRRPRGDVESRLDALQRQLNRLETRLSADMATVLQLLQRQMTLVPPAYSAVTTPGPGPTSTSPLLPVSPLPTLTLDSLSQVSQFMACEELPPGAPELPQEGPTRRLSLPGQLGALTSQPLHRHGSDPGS

Structure (SMILES)	hERG current change (%, negative = inhibition) at 1uM [%]
CN(CCOC(=O)c1ccc2c(c1)OCCO2)Cc1ccccc1.Cl	-3.38
CCOC(=O)CCCNC(=O)COC(=O)CCC(=O)c1ccc(F)cc1	11.6
Fc1ccc([C@@H]2CCNC[C@H]2COc2ccc3c(c2)OCO3)cc1.O=C(O)/C=C\C(=O)O	-7.27
Cc1cc(OCc2nc3ccccc3s2)ccc1N	10.2
CN(Cc1ccccc1)S(=O)(=O)c1ccc2c(c1)OCCO2	8.86
CCCOc1ccc(Oc2cc(C)nc(SC)n2)nn1	18.4
O=C(NCc1cccnc1)c1cccnc1-c1nc2ccccc2s1	1.85
Cc1ccc(C(=O)NC=C(Cl)Cl)cc1	14.6
CCN(C(=O)CSc1nc(N)cc(N)n1)C1CCS(=O)(=O)C1 (stereo not shown)	7.31
CCC(CC)C(=O)Nc1cccc(C(=O)Nc2nnc(C)s2)c1	9.33
Fc1ccc(NC(=S)Nc2ccccc2Cl)cc1	6.51
C/C(CC(=O)Nc1ccc(Cl)cc1)=N\NC(=O)C(=O)N1CCCCC1	8.4
C[C@H](NC(=O)OC(C)(C)C)c1nnc(SCC(=O)Nc2cccc(Cl)c2)o1	14.1
Cc1ccc(/C=C2\SC(=S)N(CCC(=O)N3CCCCC3)C2=O)cc1	9.65
CCOC(=O)c1sc(N(C)C(C)=O)nc1C	15.2
COC(=O)c1ccncc1C(=O)Nc1ccc(OC)cc1	17.3
O=C(N1CCN(c2ccccn2)CC1)N1c2ccccc2Sc2ccccc21	11.6
CCC(CC)C(=O)OCC(=O)Nc1ccc(S(=O)(=O)N2CCOCC2)cc1OC	4.38
CC(C)C(=O)Nc1ccc(NC(=O)c2ccc([N+](=O)[O-])cc2Cl)cc1	8.68
O=C(OCC(=O)c1cccs1)c1ccc(NC(=O)c2ccco2)cc1	6.35
CCC(C)C(NC(=O)C1CCC(C)CC1)C(=O)Nc1ccc(OC)cc1OC (stereo not shown)	2.41
O=C(O)c1ccc2c(=O)n3c(nc2c1)/C(=C/c1ccccc1OC(F)F)CC3	15
Brc1ccc2c(c1)C(c1cccs1)=NNC(c1cccnc1)=N2	-4.3
Cn1c(Br)nc2c1c(=O)n(Cc1ccccc1)c(=O)n2C	10.7

Structure (SMILES)	hERG current change (%, negative = inhibition) at 1uM [%]
CC1(C)Cc2c(cnn2-c2ccc(F)cc2)C(NC(=O)Cn2cncn2)C1 (stereo not shown)	7.94
CCOC(=O)c1c(S(=O)(=O)Nc2ccc(C)c(F)c2)c(C)n(C)c1C	-2.18
CCOc1ccccc1CNc1ncnc2ccc(-c3c(C)noc3C)cc12	10.4
CCn1nc(NC(=O)C(C)C)c2cc3ccc(C)cc3nc21	13.6
COc1ccccc1NC(=S)N1CCCCCC1	9.07
N#Cc1ccc(COn2nnc3ccccc32)cc1	3.72
Clc1ccccc1OCc1nnc(-c2ccccc2)o1	8.46
C=CCN=c1scc(C)n1/N=C/c1ccc(O)c(O)c1	9.35
CC1CCN(C(=O)CSc2nnc(-c3ccc(S(=O)(=O)N4CCOCC4)cc3)n2C)CC1	8.1
CC(C)(C)c1nn(-c2ccccc2)c2nc(Cl)c(C=O)cc12	16.1
COC(=O)c1cc(C(O)(C(=O)OC)C(F)(F)F)c(/N=C/N(C)C)s1 (stereo not shown)	9.37
COc1ncccc1-c1nnn(-c2ccccc2)n1	7.69
CCCCOC(=O)c1ccc(N/C(=N\S(=O)(=O)c2ccccc2)c2ccccc2)cc1	6.06
Cn1c(Cn2nnc3ccccc32)nnc1SCC(=O)N1c2ccccc2CCc2ccccc21	3.84
O=C1CN(C(=O)/C=C/c2ccc(Br)cc2)CCN1	9.57
C/C(=N\NC(=O)c1ccc(-c2ccccc2)cc1)c1cccc(N)c1	1.25
CC(C(=O)OCC(=O)c1ccccc1)N1C(=O)C2C3CCC(C3)C2C1=O (stereo not shown)	11.4
COc1ccc(Br)cc1/C=N/Nc1cccc(C(=O)O)c1	8.54
O=C(C(Cl)c1ccccc1)N1CCCC1 (stereo not shown)	20.1
CC(=O)Nc1c2c(nn1-c1ccc(Cl)cc1)CSC2	13.7
CN(C)S(=O)(=O)c1ccc(Cl)c(NC(=O)CN2CCCC2)c1	14
CCOC(=O)C(C)c1nc2ccccc2[nH]c1=O (stereo not shown)	15.1
CCOC(=O)C1CCCN(CCC(C)c2ccccc2)C1 (stereo not shown)	-9.48
O=C1C=C(Nc2cccc3cccnc23)c2ccccc2C1=O	8.72

Structure (SMILES)	hERG current change (%, negative = inhibition) at 1uM [%]
N#Cc1nnn(-c2cc(Cl)cc(Cl)c2)c1N	0.583
CNC(=S)N1CCC(NC(=O)C(Cc2ccc(F)cc2)NC(C)=O)CC1 (stereo not shown)	18.6
Cc1oc2c(CN3CCCCC3C)c(O)ccc2c(=O)c1-c1ccccc1 (stereo not shown)	-7.78
COc1ccc(C/C(N)=N/OC(=O)c2cccs2)cc1	-7.72
O=C(CSc1nc2ccccc2[nH]1)Nc1c(F)cccc1F	15.8
CCOC(=O)C(CC(=O)O)N1CCCCC1 (stereo not shown)	7.18
Cc1cc2occ(CC(=O)N(CC(C)C)c3c(N)n(Cc4ccccc4)c(=O)[nH]c3=O)c2cc1C	9.2
CCOc1ccccc1NC(=O)C1CCCCN1S(=O)(=O)c1ccc(F)cc1 (stereo not shown)	10.7
CCSC(=O)N1CCCCCC1	11.5
COc1ccc(OCC(O)CNC(=O)c2ccccc2C(=O)O)cc1 (stereo not shown)	2.88
O=C(c1cc(Cl)ccc1[N+](=O)[O-])N1CCc2ccccc2C1	14.7
O=C(COC(=O)c1cc(Cl)ccc1O)c1ccc2c(c1)OCO2	-7.02
COc1ccc(C)cc1Nc1n[n+](-c2ccccc2)c(-c2ccc(C(=O)O)cc2)s1.[Cl-]	16.6
COc1ccc(CN(C)C(=S)Nc2ccc(Cl)cc2Cl)cc1	22.7
CCC(C)CCN1CCN=C1Nc1ccccc1 (stereo not shown)	13.8
COc1cccc(N2CCN(c3ncnc4c3cnn4-c3ccc(C)cc3C)CC2)c1	6.64
CCCC(C)c1nnc(NC(=O)CCS(=O)(=O)c2ccccc2)s1 (stereo not shown)	16.5
O=C1NCCN1Cc1cccc(Cl)c1	2.54
COc1cc([C@@H]2CC=C(C(=O)O)[C@H](c3ccccc3F)N2S(=O)(=O)c2ccc(C)cc2)cc(OC)c1OC	16.7
C/C(=N\NC(=O)CN1CCN(S(=O)(=O)c2ccc(C)cc2)CC1)c1cccnc1	-7.5
CNCCCc1ccccc1.Cl	-11
CCCCCNCc1ccc(OCc2ccc(Cl)nc2)c(OC)c1	-7.27
Br.O=C(Cn1c(NCCO)nc2ccccc21)c1cccs1	14.1
CCn1cc(CN2CCN(CCC(C)C)C(CCO)C2)c2ccccc21 (stereo not shown)	6.41

Structure (SMILES)	hERG current change (%, negative = inhibition) at 1uM [%]
O=c1[nH]c2ccccc2nc1/C=C(\O)C1CC1	12.8
C/C(=N/N=C(/C)c1cccs1)c1cccs1	16.4
CC(=O)c1c(O)ccc2c(-c3ccccc3)cc(=O)oc12	-4.62
OCCN(Cc1ccccc1)c1ncnc2sccc12	12.2
COc1cc(Br)c(CNCCc2ccc3c(c2)OCO3)cc1OC	0.0424
CCN(CC)CCNC(=O)C1(O)c2cc(Br)ccc2NC(=O)N1c1ccc(Cl)cc1 (stereo not shown)	14.3
NS(=O)(=O)c1ccc(NC(=O)CCc2ccccc2)cc1	0.661
COc1ccc(S(=O)(=O)Nc2ccc(O)c(Sc3ncn[nH]3)c2)cc1	7.48
Cn1c(=O)n(C)c2cc(NS(=O)(=O)c3cccs3)ccc21	11.6
Br.CC1(C)N=C(N)NC(Nc2ccc(Br)cc2)=N1	7.7
O=C1CC(=O)N(c2ccccc2)c2ccccc21	12.8
CN(C)CCCN(C(=O)c1cc2ccccc2oc1=O)c1nc2c(F)cccc2s1.Cl	-2.2
CCCN(Cc1ccccc1)C(=S)Nc1ccc(OC(F)F)cc1	-3.58
O=[N+]([O-])c1ccccc1-c1ccc(C(=S)N2CCCC2)o1	11.5
CCNC(=O)/C(C#N)=C/c1c(N2CC(C)OC(C)C2)nc2ccccn2c1=O (stereo not shown)	12.7
Cc1ccc(S(=O)(=O)C(C#N)c2nc3ccccc3nc2N2CCCC2)cc1 (stereo not shown)	-7.15
COc1ccc(C(NC(=O)C2C3C=CC(C3)C2C(=O)O)c2ccccc2)cc1 (stereo not shown)	3.59
N#Cc1cnc(SCC(=O)N2CCCCC2)nc1N	15.2
CC(C(=O)Nc1ccccc1-c1ccccc1)N1CCOCC1 (stereo not shown)	12.7
COc1ccccc1Nc1nc(N2CCOCC2)nc(N2CCOCC2)n1	10.5
COc1ccc(C(=O)Nc2ccccc2C(=O)N/N=C/c2ccco2)cc1	-15.1
CN(c1ccccc1)c1ccc(/C=C(\CCC(=O)O)c2nc3ccccc3s2)cc1[N+](=O)[O-]	39.5
